# Measurements from the supplement of paper PMC12217912.
# Some of the results follow. The full chains were built here from the parent and the listed change. Inactive controls read about 0.05.
# B1: TEV protease; numbered along this chain (parent)
# chain: MGESLFKGPRDYNPISSSICHLTNESDGHTTSLYGIGFGPFIITNKHLFRRNNGTLVVQSLHGVFKVKDTTTLQQHLVDGRDMIIIRMPKDFPPFPQKLKFREPQREERICLVTTNFQTKSMSSMVSDTSCTFPSGDGIFWKHWIQTKDGQCGSPLVSTRDGFIVGIHSASNFTNTNNYFTSVPKNFMELLTNQEAQQWVSGWRLNADSVLWGGHKVFMVKPEEPFQPVKEATQL
# Variants of: B1
# Test: raw area under fraction-flipped curve 0-4 h after induction (AUC4h, not background-subtracted), DNA-recorder readout of cleavage of the substrate (dimensionless); higher = more cleavage of the substrate by the protease variant
# Conditions: temperature: 34 °C; time window: 0-4 h after rhamnose induction
# 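Further: Bxb1 expression induced with 0.2% (w/v) L-rhamnose at OD600 near 0.5, cultures sampled hourly, flipped fraction per protease–substrate barcode pair counted by paired-end Illumina sequencing.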
Variant,area with substrate ECLYFQS,area with substrate EDLYFQS,area with substrate EILYFQS,area with substrate EQLYFQS,area with substrate ERLYFQS,area with substrate ESLYFQS,area with substrate ETLYFQS,area with substrate EVLYFQS,area with substrate EELYFQS,area with substrate EMLYFQS,area with substrate EFLYFQS,area with substrate EGLYFQS,area with substrate EHLYFQS,area with substrate EKLYFQS,area with substrate ELLYFQS,area with substrate EWLYFQS,area with substrate EYLYFQS,area with substrate EPLYFQS
L99F,0.0508,0.102,0.0835,0.115,0.0852,0.0682,0.122,0.0979,–,–,–,–,–,–,–,–,–,–
L99G,0.101,0.106,–,0.0971,0.0801,0.0615,–,0.0717,0.109,0.115,–,–,–,–,–,–,–,–
F101C,0.0535,0.0749,0.0757,–,0.086,0.0698,0.0904,0.0829,0.0011,0.0862,0.07,0.0826,0.0855,0.0758,0.0796,0.0635,0.0719,–
R102P,0.0371,–,0.0438,0.0369,0.0726,0.0366,–,0.0332,0.0499,–,–,0.0495,0.0509,0.0241,0.0459,–,0.0479,0.0335
E103R,0.0806,0.101,0.0773,0.0834,0.0847,0.0952,0.0751,–,0.11,0.102,–,–,–,0.114,0.0797,0.0757,0.079,0.111
Q105S,0.0824,0.138,0.0998,0.135,0.0866,0.106,0.132,0.0744,0.121,0.141,–,0.101,–,–,0.0867,0.0947,–,0.124
R106Y,0.123,0.129,0.0855,0.114,0.115,0.0889,0.0936,0.0752,0.105,0.13,0.0983,0.0961,–,0.121,0.1,0.0935,0.103,–
E107P,0.0936,0.103,0.086,0.119,0.0813,0.0881,0.111,0.0898,–,0.119,–,–,–,0.0961,–,–,–,–
E107R,0.0807,–,0.0931,0.107,0.13,–,–,0.101,0.146,0.131,0.11,0.11,–,–,0.0834,0.0827,0.11,–
R109V,0.0947,–,–,0.11,0.0909,0.0846,0.108,0.0901,0.137,–,–,0.061,–,0.0849,0.0486,–,–,0.0998
I110Y,0.07,0.0789,–,–,0.0441,–,–,0.0563,0.0428,–,0.064,0.0506,–,–,–,0.0713,0.0789,–
C111G,0.0729,–,0.104,0.127,–,0.117,–,–,–,–,–,0.0684,–,–,0.0934,–,–,–
C111P,0.0526,–,0.0512,0.0573,–,0.047,–,0.0518,–,0.0393,0.0609,–,0.0458,–,0.0605,–,–,0.062
V113I,0.0768,–,0.0755,–,–,0.0848,–,0.107,–,0.131,0.0999,0.1,0.121,0.121,0.0814,–,0.0828,–
T114I,0.0901,–,–,0.117,0.0956,0.0959,–,0.0869,0.0953,0.117,0.0868,–,–,0.0987,0.0941,–,0.0896,–
